pIC50: −log10 of the molar value. By IC50 is meant the dose at which the fit gives 50% viability; where the fit passes the top or lowest dose, that dose stands as a limit. AUC is the area under the same curve over the 256-fold range up to the top dose, as a fraction; the more sensitive the line, the further below 1. For some of these results: A top dose marked as inferred was derived from the fitted curves, not read from the paper.
Key:
Assay in all cases: Viability of human cancer cell lines after 72 h of drug (GDSC screen)
TG101348 = compound: Cc1cnc(Nc2ccc(OCCN3CCCC3)cc2)nc1Nc1cccc(S(=O)(=O)NC(C)(C)C)c1 [TG101348]; details: top dose 10.24 µM
Procedure: (§1)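 Human cancer cell lines in 384-well plates, medium with 10% serum, drug for 72 h over a 256-fold dose range (nine 2-fold or five 4-fold steps up to the top dose). Adherent lines were fixed and stained with the nucleic acid dye Syto60, suspension lines read with resazurin; signal relative to control wells, capped at 0 and 100%. One two-parameter sigmoid per drug and line, fitted in a mixed model over all curves with the slope shared within a line.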

BMX-IN-1 (QL-XII-61) = compound: C=CC(=O)Nc1cc(-n2c(=O)ccc3cnc4ccc(-c5ccc(NS(C)(=O)=O)cc5)cc4c32)ccc1C [BMX-IN-1 (QL-XII-61)]; details: top dose 10 µM; top dose inferred
Procedure: as §1

BIX02189 = compound: CN(C)Cc1cccc(N=C(c2ccccc2)c2c(O)[nH]c3cc(C(=O)N(C)C)ccc23)c1 [BIX02189]; details: top dose 20 µM; top dose inferred
Procedure: as §1

CCT018159 = compound: CCc1cc(-c2n[nH]c(C)c2-c2ccc3c(c2)OCCO3)c(O)cc1O [CCT018159]; details: top dose 10 µM; top dose inferred
Procedure: as §1

17-AAG = compound: C=CCNC1=C2C[C@@H](C)C[C@H](OC)[C@H](O)[C@@H](C)/C=C(\C)[C@H](OC(N)=O)[C@@H](OC)/C=C\C=C(/C)C(=O)NC(=CC1=O)C2=O [17-AAG]; details: top dose 1 µM
Procedure: as §1

OSI-027 = compound: COc1cccc2cc(-c3nc([C@H]4CC[C@H](C(=O)O)CC4)n4ncnc(N)c34)[nH]c12 [OSI-027]; details: top dose 20 µM
Procedure: as §1

UNC1215 = compound: O=C(c1ccc(C(=O)N2CCC(N3CCCC3)CC2)c(Nc2ccccc2)c1)N1CCC(N2CCCC2)CC1 [UNC1215]; details: top dose 1 µM; top dose inferred
Procedure: as §1

Dimethyloxalylglycine = compound: COC(=O)CNC(=O)C(=O)OC [Dimethyloxalylglycine]; details: top dose 4000 µM; top dose inferred
Procedure: as §1

VX-11e = compound: Cc1cnc(Nc2ccc(F)cc2Cl)nc1-c1c[nH]c(C(=O)N[C@H](CO)c2cccc(Cl)c2)c1 [VX-11e]; details: top dose 5.12 µM; top dose inferred
Procedure: as §1

Vismodegib = compound: CS(=O)(=O)c1ccc(C(=O)Nc2ccc(Cl)c(-c3ccccn3)c2)c(Cl)c1 [Vismodegib]; details: top dose 10 µM; top dose inferred
Procedure: as §1

Doxorubicin = compound: COc1cccc2c1C(=O)c1c(O)c3c(c(O)c1C2=O)C[C@@](O)(C(=O)CO)C[C@@H]3O[C@H]1C[C@H](N)[C@H](O)[C@H](C)O1 [Doxorubicin]; details: top dose 1.024 µM
Procedure: as §1

Cell Line | AUC (TG101348) | pIC50 (TG101348) | AUC (BMX-IN-1 (QL-XII-61)) | pIC50 (BMX-IN-1 (QL-XII-61)) | AUC (BIX02189) | pIC50 (BIX02189) | AUC (CCT018159) | pIC50 (CCT018159) | AUC (17-AAG) | pIC50 (17-AAG) | AUC (OSI-027) | pIC50 (OSI-027) | AUC (UNC1215) | pIC50 (UNC1215) | AUC (Dimethyloxalylglycine) | pIC50 (Dimethyloxalylglycine) | AUC (VX-11e) | pIC50 (VX-11e) | AUC (Vismodegib) | pIC50 (Vismodegib) | AUC (Doxorubicin) | pIC50 (Doxorubicin)
NOMO-1 (acute myeloid leukaemia, suspension) | 0.632 | 5.81 | 0.863 | < 5.00 | 0.878 | < 4.70 | 0.876 | < 5.00 | 0.865 | < 6.00 | 0.352 | 6.34 | 0.98 | < 6.00 | 0.44 | 3.77 | 0.801 | 5.54 | 0.887 | < 5.00 | 0.692 | 6.62
NOS-1 (osteosarcoma, adherent) | 0.341 | 6.68 | 0.977 | < 5.00 | 0.789 | 4.95 | 0.876 | < 5.00 | 0.86 | < 6.00 | 0.235 | 6.76 | 0.977 | < 6.00 | 0.657 | 3.12 | 0.957 | < 5.29 | 0.916 | < 5.00 | 0.54 | 7.07
NUGC-4 (stomach, adherent) | 0.883 | < 4.99 | 0.874 | 5.01 | 0.875 | 4.71 | 0.981 | < 5.00 | 0.726 | 6.56 | 0.953 | < 4.70 | 0.973 | < 6.00 | 0.79 | 2.75 | 0.929 | < 5.29 | 0.988 | < 5.00 | 0.616 | 6.88
NY (osteosarcoma, adherent) | 0.98 | < 4.99 | 0.976 | < 5.00 | 0.989 | < 4.70 | 0.872 | 5.03 | 0.713 | 6.61 | 0.986 | < 4.70 | 0.987 | < 6.00 | 0.552 | 3.46 | 0.988 | < 5.29 | 0.955 | < 5.00 | 0.718 | 6.58
OCI-AML3 (acute myeloid leukaemia, suspension) | 0.66 | 5.78 | 0.634 | 5.86 | 0.837 | 4.97 | 0.945 | < 5.00 | 0.919 | < 6.00 | 0.174 | 6.80 | 0.99 | < 6.00 | 0.514 | 3.57 | 0.626 | 6.17 | 0.981 | < 5.00 | 0.712 | 6.64
OCI-AML5 (acute myeloid leukaemia, suspension) | 0.433 | 6.37 | 0.943 | < 5.00 | 0.842 | 4.91 | 0.959 | < 5.00 | 0.926 | < 6.00 | 0.184 | 6.80 | 0.988 | < 6.00 | 0.244 | 4.31 | 0.79 | 5.69 | 0.986 | < 5.00 | 0.55 | 7.06
OCI-LY-19 (B-cell lymphoma, suspension) | 0.414 | 6.42 | 0.877 | 5.06 | 0.606 | 5.62 | 0.914 | < 5.00 | 0.96 | < 6.00 | 0.059 | > 7.11 | 0.987 | < 6.00 | 0.429 | 3.79 | 0.762 | 5.77 | 0.985 | < 5.00 | 0.159 | 8.19
OCUB-M (breast, adherent) | 0.844 | 5.23 | 0.75 | 5.54 | 0.968 | < 4.70 | 0.837 | 5.26 | 0.959 | < 6.00 | 0.076 | > 7.11 | 0.987 | < 6.00 | 0.965 | < 2.40 | 0.949 | < 5.29 | 0.99 | < 5.00 | 0.215 | 7.96
OE21 (oesophagus, adherent) | 0.911 | < 4.99 | 0.963 | < 5.00 | 0.953 | < 4.70 | 0.815 | 5.08 | 0.532 | 7.10 | 0.935 | < 4.70 | 0.971 | < 6.00 | 0.491 | 3.63 | 0.961 | < 5.29 | 0.942 | < 5.00 | 0.685 | 6.59
ONS-76 (medulloblastoma, adherent) | 0.712 | 5.57 | 0.982 | < 5.00 | 0.916 | < 4.70 | 0.855 | 5.05 | 0.936 | < 6.00 | 0.286 | 6.53 | 0.983 | < 6.00 | 0.495 | – | 0.646 | 6.08 | 0.932 | < 5.00 | 0.332 | 7.68
OVISE (ovary, adherent) | 0.818 | 5.08 | 0.977 | < 5.00 | 0.926 | < 4.70 | 0.967 | < 5.00 | 0.981 | < 6.00 | 0.442 | 6.08 | 0.977 | < 6.00 | 0.737 | 2.82 | 0.956 | < 5.29 | 0.957 | < 5.00 | 0.64 | 6.75

Source: the supplement of paper PMC4967469
